Measured values taken from PubChem BioAssay AID504339 (National Center for Advancing Translational Sciences (NCATS), 2011).
Among all 390,000 compounds or so, about 17,000 (4.4%) were called active. Inconclusive means that the source gave no clear call. Such entries were picked first, then a sample of the others. Calls follow the shape of the dose curve; as a rule, active = well fitted inhibition curve with a large enough effect; inconclusive = small, poorly fitted or top-dose-only effect; inactive = no such curve, though single readings can be large or run the other way. Where the call is inconclusive, the potency comes from a doubtful curve fit.
% is scaled to controls: 0 for no effect and ±100 for the full control effect; potency is read from the fitted curve at half-maximal effect; tags tell the direction and shape of the fitted curve.
Also: nearly all actives have a fitted effect of over 50% in size.

Each compound was assayed against Lysine-specific demethylase 4A (Homo sapiens) (UniProt O75164) (assay: qHTS Assay for Inhibitors of JMJD2A-Tudor Domain). Conditions: AlphaScreen JMJD2A-Tudor / H3K4me3 peptide binding; activity change, negative = inhibition: at 114 µM (top of the series).
Sequence of UniProt O75164 (O75164 whole entry, looked up, the tested form may be a part): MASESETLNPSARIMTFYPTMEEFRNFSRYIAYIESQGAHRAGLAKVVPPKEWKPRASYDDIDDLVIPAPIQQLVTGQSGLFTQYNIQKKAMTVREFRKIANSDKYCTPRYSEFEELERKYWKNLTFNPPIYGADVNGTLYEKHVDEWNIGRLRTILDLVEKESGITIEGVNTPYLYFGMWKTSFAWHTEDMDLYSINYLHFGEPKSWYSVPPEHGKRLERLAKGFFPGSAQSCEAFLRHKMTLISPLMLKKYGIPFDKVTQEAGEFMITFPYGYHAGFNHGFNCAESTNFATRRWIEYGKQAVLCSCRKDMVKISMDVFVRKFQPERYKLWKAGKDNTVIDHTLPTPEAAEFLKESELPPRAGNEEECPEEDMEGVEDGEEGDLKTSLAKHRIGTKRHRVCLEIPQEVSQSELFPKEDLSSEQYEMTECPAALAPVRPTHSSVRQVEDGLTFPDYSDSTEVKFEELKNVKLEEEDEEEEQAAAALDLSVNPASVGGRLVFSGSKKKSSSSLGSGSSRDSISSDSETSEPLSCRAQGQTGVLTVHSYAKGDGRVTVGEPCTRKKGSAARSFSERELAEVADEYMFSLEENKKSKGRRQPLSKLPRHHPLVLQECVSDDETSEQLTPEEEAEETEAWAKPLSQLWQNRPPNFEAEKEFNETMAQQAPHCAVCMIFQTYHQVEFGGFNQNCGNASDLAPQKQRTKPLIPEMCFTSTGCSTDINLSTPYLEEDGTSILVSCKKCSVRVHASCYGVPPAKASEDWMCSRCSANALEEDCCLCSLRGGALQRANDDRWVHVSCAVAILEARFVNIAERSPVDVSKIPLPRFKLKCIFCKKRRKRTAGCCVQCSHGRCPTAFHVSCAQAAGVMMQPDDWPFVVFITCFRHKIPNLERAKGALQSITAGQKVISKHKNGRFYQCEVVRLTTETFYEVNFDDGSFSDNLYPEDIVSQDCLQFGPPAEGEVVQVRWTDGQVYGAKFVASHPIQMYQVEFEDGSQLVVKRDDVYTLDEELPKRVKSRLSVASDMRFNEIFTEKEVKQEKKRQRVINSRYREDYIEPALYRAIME
With Cc1nnc(SCC(=O)c2cc(C)n(-c3ccc4c(c3)OCO4)c2C)s1 the Potency was inconclusive: 44.7 µM [inhibitor, partial curve]. CN1CCN(S(=O)(=O)c2ccc(N3CCN(c4ccc(O)cc4)CC3)c([N+](=O)[O-])c2)CC1 was tested, and the Potency was active: 31.6 µM. For O=C1CSC(=S)N1/N=C/c1cccc(C(F)(F)F)c1, the Potency was inconclusive: 79.4 µM [inhibitor, single point]. For CN(C)CCN(C(=O)c1ccc(S(=O)(=O)N(C)c2ccccc2)cc1)c1nc2cc3c(cc2s1)OCCO3, the Potency was inconclusive: 12.6 µM [inhibitor, full curve, poor fit]. In the case of COc1ccc(C(C)NC(=O)c2cccc([N+](=O)[O-])c2)cc1OC (centres undefined), the “activity change, negative = inhibition” value was inactive: -14.3%. O=C(Cn1ncc2c([nH]c3ccccc32)c1=O)N1CCN(c2ccccc2F)CC1 was tested, and the Potency was inconclusive: 56.2 µM [inhibitor, partial curve]. With CCOc1ccc(N=c2cc(-c3ccc(OC)cc3)oc3ccccc23)cc1 the Potency was active: 15.8 µM. For CC(C)Cn1c(N)c(C(=O)COC(=O)/C=C/c2cccs2)c(=O)n(C)c1=O, the Potency was inconclusive: 3.55 µM [inhibitor, partial curve, poor fit]. In the case of CN(N=O)c1ccc(C=C2C=Cc3ccccc32)cc1, the Potency was inconclusive: 3.98 µM [inhibitor, full curve, poor fit]. With CN(C)c1ccc(NC(=O)CN2CCC(N3CCCCC3)CC2)cc1 the Potency was inconclusive: 39.8 µM [inhibitor, partial curve, poor fit]. For CNC(=O)Nc1cc(C)nn1C, the Potency was inconclusive: 15.8 µM [inhibitor, full curve, poor fit]. Cc1cc(C(=O)OCC(=O)Nc2ccc(S(N)(=O)=O)cc2)c2ccccc2n1 was tested, and the Potency was inconclusive: 100 µM [inhibitor, single point]. With COc1cccc(C2=Nn3c(nnc3-c3cccc(OC)c3OC)SC2)c1 the “activity change, negative = inhibition” value was inactive: -29%. In the case of CCN(C(=O)Cn1c(=O)oc2ccccc21)c1cccc(C)c1, the Potency was inconclusive: 14.1 µM [inhibitor, full curve]. With CCOc1ccc2c(c1)-c1c(ssc1=S)C(C)(C)N2C the Potency was active: 11.2 µM. With CC(OC(=O)c1cc(O)c2ccccc2c1O)C(=O)Nc1ccc(C(N)=O)cc1 (centres undefined) the Potency was inconclusive: 20 µM [inhibitor, full curve]. For Cc1ccc(-n2nnnc2SCC(=O)Nc2ccc3c(c2)COC3=O)cc1C, the “activity change, negative = inhibition” value was inactive: -6.14%. With O=C(c1ccc(CS(=O)c2ccccc2Cl)o1)N1CCN(c2ccccc2)CC1 (centres undefined) the Potency was inconclusive: 2.82 µM [inhibitor, single point]. In the case of COc1cc(CCC(=O)Nc2c(C(=O)N3CCN(c4ccccc4)CC3)oc3ccccc23)on1, the Potency was inconclusive: 79.4 µM [inhibitor, partial curve].
